Measurements published in the supplement of paper PMC10724272.
MIC of invasive clinical C. tropicalis isolates, CLSI broth microdilution (fluconazole 0.12-256 mg/L, up to 1,024 for the azole-resistant cluster and its neighbour group; other ranges not stated); higher = less susceptible. Call: susceptible or wild type [S] / resistant or non-wild type [R] by CLSI breakpoints or cut-offs; intermediate and dose-dependent carry no call. '<=' and '>=' at the end values are inferred; the source marks only some of them. Isolates are numbered anew.

compound: Nc1[nH]c(=O)ncc1F [flucytosine]; experiment: CLSI broth microdilution.

Test System	MIC
Candida tropicalis isolate 306 (ERG11 copies: 2, Erg11p: no key change)	≤ 0.06 mg/L [S]
Candida tropicalis isolate 380 (ERG11 copies: 7, Erg11p: Y132F, S154F (heterozygous))	≤ 0.06 mg/L [S]
Candida tropicalis isolate 1 (ERG11 copies: 2, Erg11p: no key change)	≤ 0.06 mg/L [S]
Candida tropicalis isolate 369 (ERG11 copies: 2, Erg11p: no key change)	≤ 0.06 mg/L [S]
Candida tropicalis isolate 280 (ERG11 copies: 2, Erg11p: no key change)	≤ 0.06 mg/L [S]
Candida tropicalis isolate 21 (ERG11 copies: 2, Erg11p: G464S (homozygous))	≤ 0.06 mg/L [S]
Candida tropicalis isolate 308 (ERG11 copies: 2, Erg11p: no key change)	≤ 0.06 mg/L [S]
Candida tropicalis isolate 74 (ERG11 copies: 2, Erg11p: no key change)	≤ 0.06 mg/L [S]
Candida tropicalis isolate 91 (ERG11 copies: 2, Erg11p: no key change)	0.12 mg/L [S]
Candida tropicalis isolate 228 (ERG11 copies: 2, Erg11p: no key change)	≤ 0.06 mg/L [S]
Candida tropicalis isolate 85 (ERG11 copies: 2, Erg11p: no key change)	≤ 0.06 mg/L [S]
Candida tropicalis isolate 273 (ERG11 copies: 2, Erg11p: no key change)	≤ 0.06 mg/L [S]
Candida tropicalis isolate 13 (ERG11 copies: 2, Erg11p: no key change)	0.12 mg/L [S]
Candida tropicalis isolate 244 (ERG11 copies: 2, Erg11p: no key change)	≤ 0.06 mg/L [S]
Candida tropicalis isolate 294 (ERG11 copies: 2, Erg11p: no key change)	0.25 mg/L [S]
Candida tropicalis isolate 25 (ERG11 copies: 2, Erg11p: no key change)	≤ 0.06 mg/L [S]
Candida tropicalis isolate 71 (ERG11 copies: 2, Erg11p: no key change)	≤ 0.06 mg/L [S]
Candida tropicalis isolate 232 (ERG11 copies: 2, Erg11p: no key change)	0.25 mg/L [S]
Candida tropicalis isolate 127 (ERG11 copies: 2, Erg11p: no key change)	≤ 0.06 mg/L [S]
Candida tropicalis isolate 110 (ERG11 copies: 2, Erg11p: no key change)	≤ 0.06 mg/L [S]
Candida tropicalis isolate 442 (ERG11 copies: 2, Erg11p: no key change)	≤ 0.06 mg/L [S]
Candida tropicalis isolate 260 (ERG11 copies: 2, Erg11p: no key change)	≤ 0.06 mg/L [S]
Candida tropicalis isolate 236 (ERG11 copies: 2, Erg11p: no key change)	≤ 0.06 mg/L [S]
Candida tropicalis isolate 77 (ERG11 copies: 7, Erg11p: Y132F, S154F (heterozygous))	≤ 0.06 mg/L [S]
Candida tropicalis isolate 199 (ERG11 copies: 2, Erg11p: Y257H (homozygous))	0.12 mg/L [S]
Candida tropicalis isolate 406 (ERG11 copies: 2, Erg11p: no key change)	≤ 0.06 mg/L [S]
Candida tropicalis isolate 15 (ERG11 copies: 2, Erg11p: no key change)	0.12 mg/L [S]

compound: CCCCCOc1ccc(-c2ccc(-c3ccc(C(=O)N[C@H]4C[C@@H](O)[C@@H](O)NC(=O)[C@@H]5[C@@H](O)[C@@H](C)CN5C(=O)[C@H]([C@@H](C)O)NC(=O)[C@H]([C@H](O)[C@@H](O)c5ccc(O)cc5)NC(=O)[C@@H]5C[C@@H](O)CN5C(=O)[C@H]([C@@H](C)O)NC4=O)cc3)cc2)cc1 [anidulafungin]; experiment: CLSI broth microdilution.

Test System	MIC
Candida tropicalis isolate 55 (ERG11 copies: 2, Erg11p: Y132F, S154F (heterozygous))	≤ 0.015 mg/L [S]
Candida tropicalis isolate 302 (ERG11 copies: 2, Erg11p: no key change)	0.25 mg/L [S]
Candida tropicalis isolate 12 (ERG11 copies: 2, Erg11p: no key change)	0.12 mg/L [S]
Candida tropicalis isolate 354 (ERG11 copies: 2, Erg11p: Y132F, S154F (homozygous))	0.03 mg/L [S]
Candida tropicalis isolate 447 (ERG11 copies: 2, Erg11p: no key change)	0.25 mg/L [S]
Candida tropicalis isolate 350 (ERG11 copies: 2, Erg11p: no key change)	0.06 mg/L [S]
Candida tropicalis isolate 277 (ERG11 copies: 2, Erg11p: no key change)	0.12 mg/L [S]
Candida tropicalis isolate 117 (ERG11 copies: 8, Erg11p: Y132F, S154F, P397S (heterozygous))	0.03 mg/L [S]
Candida tropicalis isolate 216 (ERG11 copies: 2, Erg11p: no key change)	0.06 mg/L [S]
Candida tropicalis isolate 306 (ERG11 copies: 2, Erg11p: no key change)	0.03 mg/L [S]
Candida tropicalis isolate 380 (ERG11 copies: 7, Erg11p: Y132F, S154F (heterozygous))	0.03 mg/L [S]
Candida tropicalis isolate 1 (ERG11 copies: 2, Erg11p: no key change)	0.12 mg/L [S]
Candida tropicalis isolate 369 (ERG11 copies: 2, Erg11p: no key change)	0.06 mg/L [S]
